Assay results published in PubChem BioAssay AID485344 (National Center for Advancing Translational Sciences (NCATS), 2010).
Screen size: about 340,000 compounds; about 6,900 (2%) were called active. No stated cut-off is given here; in the data, active means inhibition above about 30%; inactive means below that, where a call was filed. The entries are a selection whose mix differs from that of the whole data set. Where no call is shown, the source filed none.

Each compound was assayed against D(2) dopamine receptor (Homo sapiens) (UniProt P14416) (assay: HTS Assay for Allosteric Antagonists of the Human D2 Dopamine Receptor: Primary Screen for Antagonists). Settings: HEK293 TREx D2 cells, calcium flux, dopamine EC80; at 10 µM; stronger effect = higher value.
In short: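 In this primary screen, negative modulation is detected by tracking calcium flux after an EC80 dopamine challenge in inducible HEK293 T-REx D2 cells preexposed to test compound for 180 s.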
Further: 0% is about no effect.

Chain of UniProt P14416 (P14416 whole entry, looked up): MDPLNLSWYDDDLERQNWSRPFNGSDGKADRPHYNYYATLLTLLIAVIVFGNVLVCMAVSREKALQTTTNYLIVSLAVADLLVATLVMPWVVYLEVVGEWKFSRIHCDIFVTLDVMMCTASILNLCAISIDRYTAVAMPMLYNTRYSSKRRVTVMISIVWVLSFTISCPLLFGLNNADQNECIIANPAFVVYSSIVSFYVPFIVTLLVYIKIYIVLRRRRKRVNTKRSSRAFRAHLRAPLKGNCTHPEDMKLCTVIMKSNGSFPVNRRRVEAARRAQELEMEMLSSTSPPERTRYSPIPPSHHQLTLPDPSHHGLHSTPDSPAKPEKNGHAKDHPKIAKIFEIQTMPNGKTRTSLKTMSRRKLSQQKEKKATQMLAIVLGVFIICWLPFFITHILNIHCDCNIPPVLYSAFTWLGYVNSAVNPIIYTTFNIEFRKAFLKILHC

Row | SMILES | inhibition
1 | N#Cc1ccccc1NC(=O)C(=O)NCCc1csc(-c2ccc(F)cc2)n1 | 18.1%
2 | COc1ccc2c(Sc3ccc(Cl)cc3)c(C(=O)N3CCC(C)CC3)[nH]c2c1 | -13%
3 | O=C(Cn1c(=O)oc2cc(S(=O)(=O)N3CCCC3)ccc21)Nc1ccc(F)cc1F | 9.49%
4 | CCNC(=O)CC1C(=O)N(c2ccc(C)cc2)C(=O)N1CCC(C)C (stereo unspecified) | 0.0814%
5 | CCOC(=O)c1noc2ncn(CC(=O)Nc3cccc(Cl)c3)c(=O)c12 | 0.465%
6 | O=C(CSc1c2c(nc3cc(Cl)ccc13)CCCC2)N1CCN(c2ccccc2F)CC1 | -11.8%
7 | COc1ccccc1NC(=O)CSc1oc(-c2ccccc2)nc1S(=O)(=O)c1ccc(C)cc1 | 10.7%
8 | CCc1cc2cccc(C)c2nc1SCC(=O)c1ccc(NC(C)=O)cc1 | active: 46.6%
9 | Cc1ccc2nc(-c3cccnc3)c(Nc3ccc(C(C)C)cc3)n2c1 | 3.48%
10 | O=C(NCCc1ccc(Cl)cc1)C1COc2ccccc2C1 (stereo unspecified) | -17.9%
11 | O=C(c1ccc(F)cc1)n1nc(-c2cccnc2)nc1NCc1ccc(F)cc1 | -3.45%
12 | Cc1cn2c(=O)c(S(=O)(=O)N3CCN(c4cc(Cl)ccc4C)CC3)c(C)nc2s1 | 2.82%
13 | COc1ccc(-c2cc(OC(=O)c3cccc(Cl)c3)c3c(C)oc(C)c3c(=O)c2)cc1 | -4.04%
14 | COc1cc(NC(=O)N2CCC3(CC2)Nc2ccccc2-n2cccc23)cc(OC)c1OC | -4.04%
15 | CCOc1ccc(NC(=O)Cn2nnc(C(=O)NCCc3ccccc3)c2N)cc1 | 11.6%
16 | COc1ccc(-c2noc(-c3ccc(NCC4CCCO4)c([N+](=O)[O-])c3)n2)cc1 (stereo unspecified) | 6.41%
17 | CCc1nn(CC(=O)Nc2c(C)cccc2C)c(=O)c2cc3sccc3n12 | -13.3%
18 | O=C(CSc1nc2c([nH]c3ccccc32)c(=O)n1-c1ccccc1)Nc1ccc(Cl)c(Cl)c1 | 15.3%
19 | CCOC(=O)/C(=C/C=C1\Sc2cc(OCC)c(OCC)cc2N1CC)C(C)=O | active: 72.2%
20 | Sc1nnc(-c2ccc(Cl)cc2)n1Cc1ccccc1 | active: 39%
21 | CC(C)(C)N(NC(=O)c1ccccc1)C(=O)c1ccc(C(=O)N(NC(=O)c2ccccc2)C(C)(C)C)cc1 | active: 33%

Row | SMILES | inhibition
22 | CCOc1ccccc1NC(=O)CSc1ncc(S(=O)(=O)c2ccc(C)c(C)c2)c(N)n1 | 6.92%
23 | COc1ccc(NC(=S)NNS(=O)(=O)c2ccc3ccccc3c2)c(OC)c1 | active: 43.5%
24 | COc1ccc(CCNC(=O)Cn2cc(S(=O)(=O)Cc3ccccc3Cl)c3ccccc32)cc1OC | -3.08%
25 | CCSc1nnc2c(n1)OC(c1ccc(C)s1)Nc1ccccc1-2 (stereo unspecified) | -2.95%
26 | O=C(CSc1nnc(-c2ccccc2F)o1)Nc1ccccc1Cl | 2.91%
27 | O=C(O)c1ccccc1SCc1nc2ccccn2c1Br | active: 51.1%
28 | CCOc1ccc(NC(=O)N(Cc2c[nH]c3ccccc23)C2CCCCCC2)cc1 | 16.8%
29 | COc1ccc(C2C(C(=O)Nc3ccccc3OC)=C(C)Nc3c(C(=O)Nc4ccccc4)cnn32)c(OC)c1 (stereo unspecified) | 9.72%
30 | Cc1ccc(NC(=O)c2c(C)oc3ccc(O)c(CN4CCOCC4)c23)c(C)c1 | 3.89%
31 | CC(C)CCNC(=O)CCn1c(=O)c2cccn2c2cccnc21 | 10.7%
32 | COc1cn(CC(=O)Nc2ccccc2)c(CN2CCCCC2)cc1=O | 21.2%
33 | CCCn1c(=O)c2c(nc3n2CCN3c2ccc(C)cc2)n(C)c1=O | -9.08%
34 | CC[C@@H](C)[C@@H](C(=O)Nc1ccc(C)cc1)N1Cc2ccccc2C1=O | 19.6%
35 | CCN1CCCC1CNC(=O)c1csc2c1CCCC2 (stereo unspecified) | active: 86.5%
36 | CCOC(=O)c1c(NC(=O)c2cc(CC(C)C)on2)sc(C(C)=O)c1C | -11.6%
37 | Cc1ccc(CN(C(=O)COc2ccc(Cl)cc2C)C2CCS(=O)(=O)C2)o1 (stereo unspecified) | 1.28%
38 | Cc1ccc(NC(=O)c2cc3c(=O)n(Cc4ccco4)ccc3nc2C)cc1C | 3.59%
39 | COC(=O)c1cc(C(=O)OC)cc(-n2c(C)cc(C(=O)COC(=O)CNS(=O)(=O)c3ccc(C)cc3)c2C)c1 | active: 59.5%
40 | Cn1c(=O)oc2cc(S(=O)(=O)NCCC(=O)NCCc3ccc(Cl)cc3)ccc21 | active: 59.1%
41 | Cc1nc2sc(C(=O)N(C)c3ccccc3)c(NC(=O)c3ccccc3Cl)c2c(C)c1C | 2.14%
42 | CCN(CC)Cc1c(NC(=O)c2ccc(OC)cc2)sc2c1CCCC2 | 3.92%

Row | SMILES | inhibition
43 | CC(=O)Nc1ccc(Nc2nc3c(S(=O)(=O)c4cccc(Cl)c4)nnn3c3ccsc23)cc1 | 2.06%
44 | COc1ccc(CCNC(=O)Cn2c(=O)c3cccn3c3ccc(F)cc32)c(OC)c1 | -6.83%
45 | O=C(COc1ccccc1F)OCc1cc(=O)n2nc(C3CC3)sc2n1 | 3.17%
46 | Cc1oc2ncn(CC(C)C)c(=O)c2c1C(=O)NCCCN1CCC(C)CC1 | -7.18%
47 | COc1ccc(CCNC(=O)c2cnc3sc(N4CCCCC4)nn3c2=O)cc1OC | 4.43%
48 | Cc1ccc(NC(=O)CN2C(=O)CCc3cc(S(=O)(=O)N4CCCCC4)ccc32)cc1C | -2.16%
49 | COc1cccc(C(=O)Nc2ccc(-n3nncc3-c3ccccc3)cc2)c1 | -12.2%
50 | Cc1cc(C)cc(-n2c(C)nc3cc(C(=O)NCc4ccccc4Cl)ccc32)c1 | -8.88%
51 | O=C1CCCc2cc(S(=O)(=O)NCC3CCC(C(=O)NCc4ccccc4Cl)CC3)ccc2N1 (stereo unspecified) | -7.71%
52 | Cc1cccc(NC(=O)Nc2ccc(Br)cc2)n1 | 2.74%
53 | Fc1ccc(N2CCN(c3ncnc4c3nc3n4CCCCC3)CC2)cc1 | 5.65%
54 | COc1ccc(CCNC(=O)c2cc3c(s2)-c2ccccc2OC3)cc1OC | 9.39%
55 | COc1ccc(S(=O)(=O)c2c(O)c3ccc(C(=O)NCc4ccccc4)cc3[nH]c2=O)cc1 | -1.82%
56 | CCOC(=O)c1cnc2c(ccc3ccccc32)c1Nc1ccc(OCC)cc1 | -7.11%
57 | CCOCCCn1c(=N)c(C(=O)NCc2cccnc2)cc2c(=O)n3cc(C)ccc3nc21 | 22.8%
58 | CCOc1ccc(Nc2cc(C)nc3nc(Cc4ccc(Cl)cc4)nn23)cc1 | -0.938%
59 | Cc1ccc(-n2nc3c(N4CCC(C(=O)NC(C)c5ccccc5)CC4)nnc(C)c3c2C)cc1 (stereo unspecified) | 4.31%
60 | COc1ccccc1N1CCN(C(=O)c2c(C)oc3ncn(CC(C)C)c(=O)c23)CC1 | 2.29%
61 | O=C(Cn1ccc2ccccc2c1=O)NCCC(=O)Nc1ccc(F)cc1F | 8.93%
